Results reported in ChEMBL document CHEMBL4888484, “Replenishing the malaria drug discovery pipeline: Screening and hit evaluation of the MMV Hit Generation Library 1 (HGL1) against asexual blood stage Plasmodium falciparum ,using a nano luciferase reporter read-out” (2022).
Out of some 150,000 compounds screened, about 540 (0.36%) showed an effect of 50% or more. The list shows a part of the results.

test system: Plasmodium falciparum; assay: Primary screen in NF54 nanoGlo assay, in single point, at 2uM, 72h; a lower Z score goes with more inhibition; type: functional, Erythrocyte; conditions: timepoint 72 hour

Row | SMILES | % Inhibition [%] | Z score
1 | N#Cc1ccnc(-c2cccc(C(=O)NCCCN3CCCC3=O)c2)c1 | -13 | 2.11
2 | O=C(NC1(c2cccs2)CCOCC1)c1ccc2ncsc2c1 | 18 | -2.47
3 | CC1CCN(C(=O)CN2CCN(Cc3ccccc3F)CC2)CC1 | -11 | 1
4 | CCn1ccc(NC(=O)c2cc(-c3ccc4c(c3)OCO4)nc3onc(C)c23)n1 | 32 | -3.62
5 | O=C(NOC1CCCCO1)C1CC1c1ccc(C(F)(F)F)cc1 (stereo not drawn) | -6 | 0.82
6 | O=C1CN(C(=O)c2ccc3c(n2)CCCC3)CN1CC1CC1 | -11 | 1.41
7 | Cc1nc(N)sc1C(=O)N[C@@H]1C[C@@H](CO)N(C)C1 | -15 | 1.95
8 | COc1ccc2cc(C(=O)N3CC[C@@]4(CN(C)C(=O)CO4)C3)n(C)c2c1 | -8 | 0.93
9 | CCc1ccc(CC(=O)N2CC3(CCC3)[C@@H]2C2CC2)nc1 | -12 | 1.54
10 | Cn1cccc1CNC1c2ccccc2CC1O (stereo not drawn) | 1 | -0.18
11 | C[C@H]1CCCN(S(=O)(=O)NCCCn2cccn2)C1 | -3 | 0.5
12 | O=C(NCCc1csc(-n2cccn2)n1)c1cnccn1 | 0 | 0
13 | Cc1nnccc1NC(=O)NCc1ccc2c(c1)C[C@H](C)O2 | -4 | 0.72
14 | COc1ccccc1N1CCN(c2nc3ccc(C)cc3cc2-c2noc(C)n2)CC1 | -4 | 0.79
15 | CCOC(=O)c1cnn2ccc(NC(=O)[C@@H]3CCCCO3)cc12 | -16 | 2.17
16 | COc1cccc(CC(=O)OC2CCN(c3nncc4ccccc34)CC2)c1 | 4 | -0.58
17 | CCOC(=O)[C@H]1CCCN(C(=O)c2coc(CN(CCc3c[nH]c4ccccc34)Cc3ccc(C)cc3C)n2)C1 | -11 | 1.23
18 | Cn1ccnc1CN(CCO)C(=O)CCc1ccncc1 | -18 | 2.13
19 | Fc1ccc(-c2noc(CN3CCOC4CCCCC43)n2)cc1 (stereo not drawn) | -9 | 1.45
20 | CC(C)(C)OC(=O)N1C2CCCC1CN(Cc1ccc(CO)o1)C2 | 6 | -0.92
21 | COC[C@H](Nc1nnc(C2CCC2)o1)c1ccnn1C | 1 | -0.08
22 | COC(=O)c1ccc(C(C)C)c(NC(N)=O)c1 | -6 | 1.16
23 | CN(C)c1cc2c(cc1NC(=O)Nc1ccccc1C(F)(F)F)n(C)c(=O)n2C | -4 | 0.83
24 | COC(=O)c1cncnc1N(C)C[C@H](C)C(=O)OC | -2 | 0.29
